From the supplement of paper PMC12217912
Some of the results follow. The full chains were built here from the parent and the listed change. Values near 0.05 are background.

B1: TEV protease; numbered along this chain (parent)
chain: MGESLFKGPRDYNPISSSICHLTNESDGHTTSLYGIGFGPFIITNKHLFRRNNGTLVVQSLHGVFKVKDTTTLQQHLVDGRDMIIIRMPKDFPPFPQKLKFREPQREERICLVTTNFQTKSMSSMVSDTSCTFPSGDGIFWKHWIQTKDGQCGSPLVSTRDGFIVGIHSASNFTNTNNYFTSVPKNFMELLTNQEAQQWVSGWRLNADSVLWGGHKVFMVKPEEPFQPVKEATQL

Variants of: B1
Assay: raw area under fraction-flipped curve 0-4 h after induction (AUC4h, not background-subtracted), DNA-recorder readout of cleavage of the substrate (dimensionless); higher = more cleavage of the substrate by the protease variant
Conditions: temperature: 34 °C; time window: 0-4 h after rhamnose induction
Protocol: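 In vivo DNA recorder in E. coli TOP10(DE3) ΔrhaA at 34 °C. Each TEVp single-site mutant (parent TEVp 0) is paired with a single-site variant of the 7-mer TEVs (canonical ENLYFQ|S). The substrate sits between flexible linkers in a Bxb1-sfGFP-TEVs-SsrA fusion, so cleavage stabilises Bxb1 and speeds flipping of a recombination array, read by NGS. The value is the raw area under the fraction-flipped curve over 0-4 h after rhamnose induction (AUC4h), with ≥20 reads per time point. It is not background-subtracted; inactive controls average about 0.047.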
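Also: Bxb1 expression induced with 0.2% (w/v) L-rhamnose at OD600 near 0.5, cultures sampled hourly, flipped fraction per protease–substrate barcode pair counted by paired-end Illumina sequencing.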

Row | Variant | area with substrate ENLYAQS | area with substrate ENLYCQS | area with substrate ENLYEQS | area with substrate ENLYGQS | area with substrate ENLYHQS | area with substrate ENLYIQS | area with substrate ENLYKQS | area with substrate ENLYMQS | area with substrate ENLYNQS | area with substrate ENLYPQS | area with substrate ENLYQQS | area with substrate ENLYSQS | area with substrate ENLYTQS | area with substrate ENLYVQS | area with substrate ENLYWQS | area with substrate ENLYDQS | area with substrate ENLYLQS | area with substrate ENLYRQS | area with substrate ENLYYQS
1 | S171M | 0.0894 | 0.0338 | 0.0469 | 0.0604 | 0.0679 | 0.0654 | 0.0609 | 0.0619 | 0.0572 | 0.0577 | 0.0775 | 0.0816 | 0.0621 | 0.0653 | 0.0663 | – | – | – | –
2 | N177S | 0.0679 | – | 0.0535 | 0.0499 | 0.0466 | 0.0805 | 0.0491 | 0.0704 | 0.0511 | 0.0634 | 0.0416 | 0.065 | 0.0567 | 0.0877 | 0.0418 | 0.0397 | 0.0624 | 0.0507 | 0.0484
3 | N177L | 0.0976 | 0.15 | 0.0661 | 0.0795 | 0.0628 | 0.136 | 0.0769 | 0.123 | 0.066 | 0.0853 | 0.0774 | 0.0935 | – | – | 0.0842 | 0.047 | 0.101 | – | 0.0388
4 | D161A | 0.0686 | – | 0.0849 | 0.0469 | 0.0646 | 0.0699 | 0.0343 | 0.0486 | 0.0807 | 0.0562 | – | 0.0729 | 0.0525 | 0.0628 | 0.0527 | 0.0512 | 0.061 | 0.0582 | –
5 | D161W | 0.0519 | 0.0614 | 0.0483 | 0.0485 | 0.048 | 0.0542 | 0.0323 | 0.0155 | 0.041 | 0.0524 | 0.0504 | 0.0528 | 0.0488 | 0.0425 | 0.0592 | 0.0523 | 0.0469 | 0.035 | 0.0538
6 | G166D | 0.0433 | 0.0673 | 0.0594 | 0.0467 | 0.0468 | 0.048 | 0.071 | 0.048 | 0.0572 | 0.0518 | 0.0589 | 0.0395 | – | 0.0436 | 0.0484 | 0.0575 | – | 0.0546 | 0.0341
7 | G166A | 0.0557 | 0.0519 | 0.0536 | 0.0492 | 0.0511 | 0.0606 | 0.0469 | 0.0649 | 0.0486 | 0.046 | 0.0632 | 0.0567 | – | 0.0517 | 0.0349 | – | – | 0.0513 | 0.0451
8 | W199E | 0.0604 | 0.069 | 0.0596 | 0.0644 | 0.0571 | 0.0725 | 0.0608 | 0.063 | 0.0706 | 0.0483 | 0.0657 | – | 0.0695 | – | – | 0.0708 | – | 0.0573 | –
9 | W199N | 0.0581 | – | 0.0623 | 0.0569 | 0.0571 | 0.0624 | 0.0607 | 0.0569 | – | 0.069 | – | – | 0.0461 | 0.0675 | 0.0579 | – | 0.0724 | 0.058 | 0.0598
10 | S169M | 0.0644 | 0.0715 | 0.0624 | 0.058 | 0.066 | 0.0663 | 0.051 | 0.0616 | 0.065 | 0.0542 | 0.0555 | 0.0586 | – | 0.085 | 0.0645 | 0.0766 | 0.0517 | 0.054 | 0.0567
11 | L190M | 0.0825 | 0.0839 | 0.0638 | 0.0618 | 0.0728 | – | 0.0535 | 0.0845 | 0.0938 | 0.086 | – | 0.0681 | 0.0686 | 0.106 | 0.0931 | 0.0551 | – | – | 0.0614
12 | L191F | 0.0485 | 0.0679 | 0.0674 | 0.0595 | 0.0621 | 0.113 | 0.0633 | 0.0864 | 0.0904 | 0.0598 | – | 0.059 | 0.0642 | 0.118 | 0.0666 | 0.0561 | – | 0.0585 | –
13 | L191K | 0.115 | – | 0.0569 | 0.0478 | 0.0593 | 0.0589 | 0.0592 | 0.0685 | 0.06 | 0.0673 | 0.0571 | 0.0575 | – | 0.0492 | 0.0564 | 0.0603 | 0.0476 | 0.0491 | 0.0605
14 | L191Y | 0.0533 | – | 0.0712 | 0.0729 | 0.0693 | – | 0.0654 | – | 0.0448 | 0.0682 | 0.0621 | 0.0593 | 0.0699 | 0.0704 | – | 0.0543 | – | – | 0.0645
15 | L205M | 0.102 | – | 0.0736 | 0.0721 | 0.0678 | 0.1 | 0.036 | 0.0882 | 0.0514 | 0.0839 | 0.0693 | 0.0724 | 0.0934 | 0.0856 | 0.0854 | 0.0575 | 0.0892 | – | 0.0828
16 | K185G | 0.089 | – | 0.0631 | – | 0.0703 | – | 0.0428 | – | 0.0693 | 0.0761 | – | – | – | 0.111 | 0.0925 | – | – | – | –
17 | V183H | 0.0639 | – | 0.0549 | 0.0553 | 0.0626 | 0.0668 | 0.0511 | 0.0616 | 0.0509 | 0.0548 | – | 0.0599 | – | 0.103 | 0.0584 | 0.0528 | 0.0738 | 0.04 | 0.0331
18 | S209V | 0.0861 | – | 0.0707 | 0.0525 | 0.112 | – | 0.0617 | – | 0.0669 | 0.0522 | – | 0.0904 | 0.0506 | – | 0.0946 | – | 0.126 | 0.0649 | –
19 | Q197D | 0.0383 | 0.0857 | 0.0632 | 0.0787 | 0.055 | – | 0.0504 | 0.107 | – | 0.066 | 0.052 | 0.0746 | 0.0811 | 0.11 | 0.0678 | 0.0661 | – | 0.0548 | 0.0557
20 | I164D | 0.0637 | 0.0521 | 0.058 | 0.0522 | 0.057 | – | 0.0538 | – | 0.0546 | 0.0686 | 0.0472 | 0.0528 | 0.0531 | – | 0.0457 | 0.0493 | 0.0476 | 0.0676 | 0.0613
21 | R204L | 0.0365 | 0.0817 | 0.0649 | 0.0635 | 0.066 | 0.144 | – | 0.083 | 0.0673 | 0.065 | – | 0.0695 | – | 0.109 | 0.0701 | 0.0662 | 0.0664 | 0.0641 | –
22 | G202Q | 0.0615 | – | 0.0676 | 0.0622 | 0.0677 | 0.0798 | 0.05 | 0.0694 | 0.0627 | 0.0593 | 0.0678 | 0.0561 | 0.0398 | 0.0651 | 0.0551 | 0.0541 | – | 0.0657 | –
23 | W203G | 0.0766 | – | 0.0502 | 0.0636 | 0.0623 | 0.0598 | 0.0629 | 0.0602 | 0.0583 | 0.0608 | 0.0723 | 0.0562 | 0.0674 | 0.0692 | 0.0518 | 0.056 | – | 0.0586 | 0.0408
